{
  "source": "paper PMC4336329",
  "about": "(PLoS ONE, 2015)",
  "note": "About 14,000 (4.5%) of roughly 310,000 compounds showed an effect of 50% or more. The effect is printed as a negative number. The list shows a part of the results.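 Note: peak tail current of the secondary pulse compared with the same well before compound.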",
  "data": [
    {"biological_target": "human ether-à-go-go-related gene (hERG) potassium channel (human, UniProt Q12809)", "sequence (Q12809 whole entry, looked up)": "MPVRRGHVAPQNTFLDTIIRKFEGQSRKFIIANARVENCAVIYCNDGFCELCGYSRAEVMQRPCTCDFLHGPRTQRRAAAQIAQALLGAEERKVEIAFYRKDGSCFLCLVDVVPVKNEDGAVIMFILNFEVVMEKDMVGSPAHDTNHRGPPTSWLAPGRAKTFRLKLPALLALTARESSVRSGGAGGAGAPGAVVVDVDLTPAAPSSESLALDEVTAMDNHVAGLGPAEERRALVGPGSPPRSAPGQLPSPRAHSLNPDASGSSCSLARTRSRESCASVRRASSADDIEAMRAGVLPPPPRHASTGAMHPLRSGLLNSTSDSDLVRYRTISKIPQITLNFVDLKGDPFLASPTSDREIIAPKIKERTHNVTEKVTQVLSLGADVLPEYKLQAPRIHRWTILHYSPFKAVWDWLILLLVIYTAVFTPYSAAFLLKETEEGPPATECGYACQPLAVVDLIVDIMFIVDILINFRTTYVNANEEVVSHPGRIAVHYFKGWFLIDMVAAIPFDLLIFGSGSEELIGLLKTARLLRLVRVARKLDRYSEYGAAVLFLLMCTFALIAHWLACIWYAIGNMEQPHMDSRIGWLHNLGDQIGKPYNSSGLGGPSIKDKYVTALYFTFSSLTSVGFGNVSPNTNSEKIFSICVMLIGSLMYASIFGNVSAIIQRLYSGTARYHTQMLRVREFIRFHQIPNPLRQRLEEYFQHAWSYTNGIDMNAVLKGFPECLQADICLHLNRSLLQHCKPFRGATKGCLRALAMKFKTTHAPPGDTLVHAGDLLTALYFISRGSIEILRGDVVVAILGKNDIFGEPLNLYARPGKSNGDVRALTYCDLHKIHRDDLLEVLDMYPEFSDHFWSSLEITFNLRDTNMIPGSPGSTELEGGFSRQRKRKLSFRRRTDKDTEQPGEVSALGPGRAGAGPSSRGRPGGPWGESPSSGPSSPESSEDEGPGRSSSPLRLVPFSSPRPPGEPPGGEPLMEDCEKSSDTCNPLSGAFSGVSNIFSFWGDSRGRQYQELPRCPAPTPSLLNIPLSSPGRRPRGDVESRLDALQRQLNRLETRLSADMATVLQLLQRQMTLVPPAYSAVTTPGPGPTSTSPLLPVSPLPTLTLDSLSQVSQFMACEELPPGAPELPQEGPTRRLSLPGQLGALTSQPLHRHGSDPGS", "assay": "primary screen, population patch clamp on CHO cells stably expressing hERG", "units": {"hERG current change (%, negative = inhibition) at 10uM": "%"}, "values": [
      {"smiles": "O=c1oc(-c2cccs2)nc2ccccc12", "hERG current change (%, negative = inhibition) at 10uM": 4.42},
      {"smiles": "CC(=O)N(c1nc(CCl)cs1)c1c(C)cc(C)cc1C", "hERG current change (%, negative = inhibition) at 10uM": 7.84},
      {"smiles": "Cc1ccc(-n2nc(C(=O)O)c(C)c(C#N)c2=O)cc1Cl", "hERG current change (%, negative = inhibition) at 10uM": 16.7},
      {"smiles": "CCN1C(=O)C(CC(=O)Nc2ccc(OC)cc2)N(CCCN2CCN(c3ccc(F)cc3)CC2)C1=S", "note": "(stereo not drawn)", "hERG current change (%, negative = inhibition) at 10uM": -37.6},
      {"smiles": "COc1ccc2c(CC(=O)OCC(=O)c3ccc(F)cc3)coc2c1", "hERG current change (%, negative = inhibition) at 10uM": 6.5},
      {"smiles": "CN(c1cccc(Cl)c1)S(=O)(=O)c1cccc(C(=O)NC2=NCCS2)c1", "hERG current change (%, negative = inhibition) at 10uM": 6.79},
      {"smiles": "CCc1ccc(-c2cc(C(=O)NN3CCN(C)CC3)c3ccccc3n2)cc1", "hERG current change (%, negative = inhibition) at 10uM": -38.3},
      {"smiles": "Cc1nonc1NC(=O)OCCN1CCOC1=O", "hERG current change (%, negative = inhibition) at 10uM": 15.3},
      {"smiles": "COc1ccc(C(=O)NCC(=O)OCc2ccc(Cl)cc2Cl)cc1OC", "hERG current change (%, negative = inhibition) at 10uM": -6.66},
      {"smiles": "COc1cccc(CN2CCN(Cc3nc(C(C)C)cs3)CC2CCO)c1", "note": "(stereo not drawn)", "hERG current change (%, negative = inhibition) at 10uM": -73.7},
      {"smiles": "O=C(/C=C/c1ccc2c(c1)OCO2)NCc1ccco1", "hERG current change (%, negative = inhibition) at 10uM": 2.13},
      {"smiles": "Cc1ccc(NCN2C(=O)C3C4C=CC(C4)C3C2=O)cc1", "note": "(stereo not drawn)", "hERG current change (%, negative = inhibition) at 10uM": 8.22},
      {"smiles": "CS(=O)(=O)N1CCN(c2ccc([N+](=O)[O-])cc2C(F)(F)F)CC1", "hERG current change (%, negative = inhibition) at 10uM": -40.7},
      {"smiles": "CCc1occc(=O)c1Oc1cc(NN2CCCCC2)c([N+](=O)[O-])cc1[N+](=O)[O-]", "hERG current change (%, negative = inhibition) at 10uM": -42.2},
      {"smiles": "COc1cccc(/C=C2/SC(=S)N(CC(=O)NNC(=O)c3ccccc3O)C2=O)c1", "hERG current change (%, negative = inhibition) at 10uM": 21.9},
      {"smiles": "Cc1ccc(S(=O)(=O)N2CCOCC2)cc1NC(=O)CSc1nnc(NC2CC2)s1", "hERG current change (%, negative = inhibition) at 10uM": -6.46},
      {"smiles": "CCCSc1nc(NCc2ccco2)c2c3c(sc2n1)COC(C)(CC)C3", "note": "(stereo not drawn)", "hERG current change (%, negative = inhibition) at 10uM": 6.65},
      {"smiles": "CCOC(=O)N1CCC(NC(=O)C2CCCN(S(=O)(=O)c3cccc4nsnc34)C2)CC1", "note": "(stereo not drawn)", "hERG current change (%, negative = inhibition) at 10uM": -17.1},
      {"smiles": "COc1ccc(O[C@H]2C=C[C@@H](c3ccccc3)O[C@@H]2COC(=O)CC/C(C)=N/O[C@H](C)c2cn([C@@H]3COC[C@H]3O)nn2)cc1", "hERG current change (%, negative = inhibition) at 10uM": -15.5},
      {"smiles": "Cc1ccc2c(c1)CC1(CN2C)C(=O)NC(=O)N(CCc2ccccc2)C1=O", "note": "(stereo not drawn)", "hERG current change (%, negative = inhibition) at 10uM": -15.2},
      {"smiles": "CCn1c(C)nc2cc(C(=O)NNC(=S)Nc3ccccc3OC)ccc21", "hERG current change (%, negative = inhibition) at 10uM": -13.2},
      {"smiles": "COC1CCCCC1Nc1cc(C)cc(C)c1", "note": "(stereo not drawn)", "hERG current change (%, negative = inhibition) at 10uM": 5.98},
      {"smiles": "COc1ccccc1NC(=O)Cn1c(CN2CCCCC2)nc2ccccc2c1=O", "hERG current change (%, negative = inhibition) at 10uM": -43.7},
      {"smiles": "O=C(Nc1ccnn1C1CCN(Cc2ccc(C#CCCO)cc2)CC1)c1cccc(F)c1", "hERG current change (%, negative = inhibition) at 10uM": -77.3},
      {"smiles": "CCc1nn(CC(=O)NCCCN2CCN(CC)CC2)c(=O)c2cc3occc3n12", "hERG current change (%, negative = inhibition) at 10uM": 16.7},
      {"smiles": "Cc1cc(=O)[nH]c2c(C)cc(S(=O)(=O)N3CCCCC3)cc12", "hERG current change (%, negative = inhibition) at 10uM": 4.69},
      {"smiles": "CC(=O)Nc1ccc(N2CC(C)(C)C2=O)cc1", "hERG current change (%, negative = inhibition) at 10uM": 5.07},
      {"smiles": "CC(=O)c1sc(Nc2cccc3ccccc23)nc1C.Cl", "hERG current change (%, negative = inhibition) at 10uM": 5.55},
      {"smiles": "Cc1cccc(OP(=O)(Oc2ccccc2)OC(c2ccccc2)C(F)(F)F)c1", "note": "(stereo not drawn)", "hERG current change (%, negative = inhibition) at 10uM": 8.93},
      {"smiles": "Cc1ccc(C)c(CSC2=NCCN2S(=O)(=O)c2ccccc2)c1", "hERG current change (%, negative = inhibition) at 10uM": -6.88},
      {"smiles": "COc1ccc(NC2=NCC(=O)N2c2ccccc2F)c(OC)c1.Cl", "hERG current change (%, negative = inhibition) at 10uM": 1.89},
      {"smiles": "CCOCCCNC(=O)Cc1cc(=O)[nH]c(=O)[nH]1", "hERG current change (%, negative = inhibition) at 10uM": -3.82},
      {"smiles": "COc1cccc(C2NC(=O)c3ccccc3O2)c1OC", "note": "(stereo not drawn)", "hERG current change (%, negative = inhibition) at 10uM": 19.6},
      {"smiles": "CC(=O)c1[nH]c(C)c(C(C)=O)c1C", "hERG current change (%, negative = inhibition) at 10uM": 13.9},
      {"smiles": "Cc1ccc(N2C(=O)NC(=O)/C(=C\\C=C\\c3ccco3)C2=O)cc1C", "hERG current change (%, negative = inhibition) at 10uM": -24},
      {"smiles": "C=CCN(C(=O)Cc1cccs1)c1nc(-c2ccc(S(C)(=O)=O)cc2)cs1", "hERG current change (%, negative = inhibition) at 10uM": 23.3},
      {"smiles": "CCC(C(=O)Nc1cccc(C(=O)O)c1)c1ccccc1", "note": "(stereo not drawn)", "hERG current change (%, negative = inhibition) at 10uM": 9.69},
      {"smiles": "S=C(Nc1cccc(Cl)c1)N1CCN(Cc2ccccc2)CC1", "hERG current change (%, negative = inhibition) at 10uM": -0.507},
      {"smiles": "COc1ccccc1OCCNC(=O)c1ccccc1OCc1c(C)noc1C", "hERG current change (%, negative = inhibition) at 10uM": 2.7},
      {"smiles": "C=CCc1c(C)nc2c(-c3ccccc3)cnn2c1N1CCOCC1", "hERG current change (%, negative = inhibition) at 10uM": 12.3},
      {"smiles": "CC(Oc1ccc(Cl)cc1Cl)C(=O)NCc1ccncc1", "note": "(stereo not drawn)", "hERG current change (%, negative = inhibition) at 10uM": -14.6},
      {"smiles": "CCc1cccc2c(C(=S)N3CCCC3)c[nH]c12", "hERG current change (%, negative = inhibition) at 10uM": 8.97},
      {"smiles": "O=c1c2ccccc2nc(/C=C/c2ccc([N+](=O)[O-])cc2)n1CCCO", "hERG current change (%, negative = inhibition) at 10uM": -57.4},
      {"smiles": "Cc1csc(NC(=O)Cc2c(F)cccc2Cl)n1", "hERG current change (%, negative = inhibition) at 10uM": 7.34},
      {"smiles": "Cc1cc2[nH]c(=O)c(=O)[nH]c2cc1S(=O)(=O)N1CCN(c2ccccc2)CC1", "hERG current change (%, negative = inhibition) at 10uM": 0.741},
      {"smiles": "Cc1[nH]c2ccccc2c1-c1csc(NC(=O)CN2CCOCC2)n1", "hERG current change (%, negative = inhibition) at 10uM": 15.1},
      {"smiles": "C[C@H]1CN=C(Nc2ccccc2)N1CCC1CCCC1", "hERG current change (%, negative = inhibition) at 10uM": -10.6},
      {"smiles": "O=C(NNc1cccc(Cl)n1)c1c(Cl)cccc1Cl", "hERG current change (%, negative = inhibition) at 10uM": 15.5},
      {"smiles": "COC(=O)c1cc2n3ccccc3c(C)c(-c3ccccc3)c-2c1C(=O)OC", "hERG current change (%, negative = inhibition) at 10uM": -17.7},
      {"smiles": "C=CCc1c(C)nc2cc(-c3ccc(C)cc3)[nH]n2c1=O", "hERG current change (%, negative = inhibition) at 10uM": -0.286},
      {"smiles": "CCCCn1c(N)c(N(CC)C(=O)c2cccc(C)c2)c(=O)[nH]c1=O", "hERG current change (%, negative = inhibition) at 10uM": 14.2},
      {"smiles": "O=C(Cn1ncc2c(=O)oc3ccccc3c21)NCc1cccnc1", "hERG current change (%, negative = inhibition) at 10uM": -9.2},
      {"smiles": "Cc1ccc(CCNC(=O)c2cc(C)nn2-c2ccccc2)cc1", "hERG current change (%, negative = inhibition) at 10uM": -18},
      {"smiles": "CC(=O)c1c(C)[nH]c(C(=O)Nc2ccc(C)c(S(=O)(=O)N(C)C)c2)c1C", "hERG current change (%, negative = inhibition) at 10uM": -11.7},
      {"smiles": "O=C(CCC1CCCC1)NCCCNC(=O)CCC1CCCC1", "hERG current change (%, negative = inhibition) at 10uM": 4.72},
      {"smiles": "CCOc1ccc(CCNC(=O)CCCn2c(=O)c3cccn3c3cccnc32)cc1OCC", "hERG current change (%, negative = inhibition) at 10uM": -13.3},
      {"smiles": "COc1ccc(/C=N/NC(=O)c2ccccc2OC)cc1COc1ccccc1[N+](=O)[O-]", "hERG current change (%, negative = inhibition) at 10uM": 8.94}
    ]}
  ]
}
